System: POLE2 D284G
Assay: Proximity labeling MS, POLE2 D284G
Conditions: bait POLE2_D284G

B1: ABT1 (protein, UniProt Q9ULW3 1-272, looked up)
Activator of basal …: MEAEESEKAATEQEPLEGTEQTLDAEEEQEESEEAACGSKKRVVPGIVYLGHIPPRFRPLHVRNLLSAYGEVGRVFFQAEDRFVRRKKKAAAAAGGKKRSYTKDYTEGWVEFRDKRIAKRVAASLHNTPMGARRRSPFRYDLWNLKYLHRFTWSHLSEHLAFERQVRRQRLRAEVAQAKRETDFYLQSVERGQRFLAADGDPARPDGSWTFAQRPTEQELRARKAARPGGRERARLATAQDKARSNKGLLARIFGAPPPSESMEGPSLVRDS
Mean of 3 replicates
  AvgSpec: 10.67
Replicate 1
  Spec: 11
Replicate 2
  Spec: 7
Replicate 3
  Spec: 14
Sum of 3 replicates
  SpecSum: 32
Versus control counts
  FoldChange: 8.8
